Out of some 420,000 compounds screened, about 64,000 (15%) were called active. This list was built around the results that the source calls inconclusive (neither active nor inactive); the mix of calls is not that of the screen. The call rests on the fitted dose curve; in most records, active means well fitted inhibition curve with a large enough effect; inconclusive means small, poorly fitted or top-dose-only effect; inactive means flat fitted curve, though single readings scatter. No potency is given beside an inconclusive call; the fits are too rough.
Assay: qHTS for Inhibitors of human tyrosyl-DNA phosphodiesterase 1 (TDP1): qHTS in cells in absence of CPT; further: nearly all actives have a fitted effect of over 55% in size
Conditions: DT40 Tdp1-/- hTDP1 cells, no CPT, ATP luminescence, 48 h; activity change, negative = growth inhibition: at 46.2 µM (top of the series) unless noted
Procedure, shortened: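 Cells were dispensed at 400 per well, compounds added by pin tool, plates incubated ≥48 hr at 37 °C, then CellTiter-Glo added for 30 min at room temperature before luminescence reading. Line: DT40 Tdp1-/- complemented with hTDP1; camptothecin omitted.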
On the % scale 0 is the no-effect control and ±100 the full control effect; potency means the concentration at half of the fitted maximal effect; tags describe the fitted curve by direction and shape.

SMILES | Potency | activity change, negative = growth inhibition
Cc1ccc(C)c(N2CCN(C(=O)C3CCCCN3S(=O)(=O)c3ccc(F)cc3)CC2)c1 (stereo not given) | inconclusive [inhibitor, single point] | –
CCC(C(N)=O)c1ccccc1 (stereo not given) | inactive | –
COc1ccc(Cl)cc1NC(=O)c1cc(-c2ccccc2O)n[nH]1 | active: 14.6 µM | –
COc1cccc(NC(=O)COC(=O)CCS(=O)(=O)c2ccc(C)cc2)c1 | inactive | –
Cc1cccc(N2CCN(C(=O)c3cc4c(=O)oc5ccccc5c4s3)CC2C)c1 (stereo not given) | inactive | –
CCOc1ccc(NC(=O)CSc2ncc(-c3ccc(F)cc3)n2Cc2ccco2)cc1 | inconclusive [inhibitor, single point] | –
CSC(=S)N/N=C/c1ccccc1 | inconclusive [inhibitor, single point] | –
Cc1ccc(NC(=O)CN(c2ccccc2)S(=O)(=O)N(C)C)cc1C | inconclusive [inhibitor, single point] | –
O=C(CSc1n[nH]c(=O)[nH]c1=O)Nc1ccc2c(c1)C(=O)c1ccccc1C2=O | inconclusive [inhibitor, single point] | –
COc1ccc(NS(=O)(=O)c2cccc(C(=O)NC3CCC(O)CC3)c2)cc1 (stereo not given) | inconclusive [inhibitor, single point] | –
CC(OC(=O)C1=COCCO1)C(=O)NC1CCCCC1C (stereo not given) | inactive | –
O=S(=O)(c1cccs1)N1CCN(c2cccc(Cl)c2)CC1 | inactive | –
COc1ccc2[nH]c(C(=O)N/N=C/c3ccc(OC)c(O)c3)cc2c1 | active: 1.3 µM | –
Cc1cccc(Nc2nnc(SCC(=O)Nc3ncc(C(F)(F)F)cc3Cl)s2)c1C | inconclusive [inhibitor, single point] | –
C[C@@H]1CC=C[C@@H]2[C@H]1C(=O)N(Cc1ccccc1)[C@H]2c1cccc(C#Cc2ccccc2)c1 | active: 10.3 µM | –
CC(=O)c1ccc(N2CCN(C(=O)Cc3ccccc3)CC2)c(F)c1 | inconclusive [inhibitor, partial curve] | –
Cc1cc(C)c2nc(N3CCCC(C(=O)NCc4cccc(Cl)c4)C3)sc2c1 (stereo not given) | inconclusive [inhibitor, single point] | –
O=C(c1cccc(Cl)c1)N1CCN(Cc2ccccc2)CC1 | inactive | –
COc1cc(NC(=O)c2cc3ccccc3cc2O)c(OC)cc1Cl | active: 10.3 µM | –
COc1cccc(NC(=O)c2nn(-c3ccc(C)cc3)c(=O)n(C)c2=O)c1 | active: 14.6 µM | –
O=c1[nH]c(COc2ccc(Cl)cc2Br)nc2ccccc12 | inconclusive [inhibitor, single point] | –
CCn1c(-c2csc3ccccc23)n[nH]c1=S | inconclusive [inhibitor, single point] | –
CCc1ccc(CNC(=O)c2ccc3nc(SCc4ccc(F)cc4)n(C)c3c2)cc1 | active: 20.6 µM | –
Cc1cccc(-c2nnc(SCC(=O)N3CCCC3)o2)c1 | inactive | –

SMILES | Potency | activity change, negative = growth inhibition
Cc1ccc(NC(=O)CSc2cc(=O)n(C)c3ccc(Cl)cc23)c(Br)c1 | inconclusive [inhibitor, single point] | –
Clc1ccc(OCCCn2ccnc2)c(Br)c1 | inconclusive [inhibitor, single point] | –
Cc1ccc(NS(=O)(=O)c2ccc3c(c2)NC(=O)C(C)C(=O)N3)cc1F (stereo not given) | inconclusive [inhibitor, single point] | –
Cn1cc(CCCC(=O)NCc2ccccc2)c2ccccc21 | inconclusive [inhibitor, single point] | –
CN1/C(=C\C(=O)CSc2ncn[nH]2)C(C)(C)c2ccccc21 | inconclusive [inhibitor, single point] | –
CCOc1ccc(-n2c(SCC(=O)Nc3cc(C)on3)nc3c(c2=O)SCC3)cc1 | inconclusive [inhibitor, partial curve, poor fit] | –
COc1ccc(CNC(=O)C(c2ccco2)N(C(=O)c2snc(C(N)=O)c2N)c2ccccc2OC)cc1 (stereo not given) | inconclusive [inhibitor, partial curve] | –
CC(C)Cn1c(N)c(C(=O)COC(=O)CCc2nc3ccccc3c(=O)[nH]2)c(=O)n(C)c1=O | inactive | –
O=C(NCCC(c1ccccc1)c1ccccc1)c1ccc(Br)o1 | inconclusive [inhibitor, partial curve] | –
O=C(CSc1nnc(NC(=O)c2cc(Br)ccc2Cl)s1)NCC1CCCO1 (stereo not given) | inactive | –
COC(=O)[C@@H](Cc1c[nH]c2ccccc12)NC(=O)C1CCCN(S(=O)(=O)c2ccc(C)cc2)C1 (stereo not given in full) | inactive | –
O=C(CSc1ccccc1)N1CCCC(N2CCN(c3ccc(F)cc3)CC2)C1 (stereo not given) | inconclusive [inhibitor, single point] | –
Cc1ccc(O)c(N=NC2=C(O)CC(C)(C)CC2=O)c1 | active: 8.2 µM | –
CCOc1ccccc1NC(=O)NNC(=O)COc1cccc(C)c1C | – | inconclusive: -31.4% [inhibitor]
CC(NC(=O)c1ccc2c(c1)N(Cc1cccc(F)c1)C(=O)c1ccccc1S2)c1ccccc1 (stereo not given) | inconclusive [inhibitor, single point] | –
CCC(C)Sc1ccc([C@@H]2[C@@H]3C(=O)N(C)C(=O)[C@@H]3[C@]3(C(=O)OC)CCCCN23)cc1 (stereo not given in full) | inconclusive [inhibitor, partial curve] | –
O=C(c1cccs1)c1no[n+]([O-])c1C(=O)c1cccs1 | active: 2.31 µM | –
Cc1ccc(C)c(N(CC(=O)NC2CCCC2)C(=O)c2cc3cc4cc(C)ccc4nc3s2)c1 | active: 11.2 µM | –
COc1cccc(N2CN(CCc3ccccc3)CNC2=S)c1 | inconclusive [inhibitor, single point] | –
CC(=O)c1cccc(NC(=O)C(C)OC(=O)c2cccc(-n3cnnn3)c2)c1 (stereo not given) | inactive | –
CC(C)N(C(=O)COc1ccc(Br)cc1Cl)C(C)C | inconclusive [inhibitor, partial curve] | –
Cc1ccc(NC(=O)c2cc(-c3ccccc3O)n[nH]2)cc1C | inconclusive [inhibitor, partial curve] | –
O=C(CSc1nc2ccccc2s1)N1CCN(C(=O)c2ccco2)CC1 | inconclusive [inhibitor, partial curve] | –
N#CCc1c[nH]c2ccc([N+](=O)[O-])cc12 | inconclusive [inhibitor, partial curve] | –

SMILES | Potency | activity change, negative = growth inhibition
Cc1ccc([N+](=O)[O-])cc1S(=O)(=O)Nc1ccc(N2CCOCC2)cc1 | inconclusive [inhibitor, single point] | –
CC(=O)OCC(=O)C1(O)CCC2C3CCC4=CC(=O)CCC4(C)C3C(O)CC21C (stereo not given) | inactive | –
Cc1cccc(C(C)C)c1NS(=O)(=O)c1cn(C)nc1C | inactive | –
c1cncc(-c2nc(NCCN3CCOCC3)c3ccccc3n2)c1 | inconclusive [inhibitor, single point] | –
Cn1c(NC(=O)CC2CCCCC2)cc(=O)n(C)c1=O | inconclusive [inhibitor, single point] | –
COc1cc(C(=S)N2CCOCC2)ccc1OC(=O)c1ccc([N+](=O)[O-])cc1[N+](=O)[O-] | inconclusive [inhibitor, single point] | –
COc1cc(NC(=O)CN2C(=O)C(c3ccc(C)cc3)=NC23CCCCC3)cc(OC)c1 | inconclusive [inhibitor, single point] | –
COc1ccc(C(=O)NCC2Cc3cc(C)cc(-c4cc(C(C)=O)ccc4F)c3O2)c(OC)c1OC (stereo not given) | inconclusive [inhibitor, single point] | –
COc1ccc(S(=O)(=O)N2CCCCCC2)cc1NC(=O)CN(C)Cc1ccc2c(c1)OCO2 | active: 20.6 µM | –
N#Cc1ccc(S(=O)(=O)N2CCc3[nH]c4ccc(F)cc4c3C2)cc1 | inconclusive [inhibitor, single point] | –
Cc1ccc(-c2nc(CS(=O)(=O)CC(=O)NCCCN(Cc3ccccc3)C(C)C)c(C)o2)cc1 | inconclusive [inhibitor, single point] | –
CC(C)(C)OC(=O)NCCCCCNC(=O)c1nc[nH]c1C(=O)NCCCCCNC(=O)OC(C)(C)C | active: 10.3 µM | –
Fc1ccc(/C=N/N2CCN(Cc3ccccc3)CC2)cc1 | inconclusive [inhibitor, partial curve] | –
CC(=O)c1c(N)c(C#N)c(C)n1-c1ccc(Br)cc1 | inconclusive [inhibitor, single point] | –
CCC12CN3CC(CC)(CN(C1)C31C(=O)N(C)c3ccc(C)cc31)C2=O (stereo not given) | inactive | –
O=c1c2sc3ccccc3c2n(Cc2ccccc2F)c(=O)n1Cc1ccccc1 | inconclusive [inhibitor, partial curve] | –
Cc1cc(OCCCn2ccnc2)ccc1C(C)C | active: 20.6 µM | –
COc1ccc(Cl)cc1NC(=O)c1cc(C)nc2c1c(C)nn2-c1ccccc1 | inconclusive [inhibitor, single point] | –
Cc1ccc(-n2nc3c(SCCN4CCOCC4)nnc(C)c3c2C)cc1 | inconclusive [inhibitor, single point] | –
CC(C)Cn1c(SCC(=O)Nc2cccnc2Cl)nnc1-c1ccco1 | inactive | –
CSc1oc(-c2ccccc2)nc1S(=O)(=O)c1ccc(F)cc1 | inactive | –
CC(C)CC(NC(=O)OC(C)(C)C)c1cn([C@@H](Cc2cc3ccccc3[nH]2)C(=O)N2CCN(C(=O)OC(C)(C)C)CC2)nn1 (stereo not given in full) | active: 18.4 µM | –

— PubChem BioAssay AID686978 (National Center for Advancing Translational Sciences (NCATS), 2013)
